# Data from the supplement of paper PMC12217912.
# This is one part of the list. Sequences were assembled here from the parent chain. Inactive controls read about 0.05.
# B1: TEV protease; numbered along this chain (parent)
# chain: MGESLFKGPRDYNPISSSICHLTNESDGHTTSLYGIGFGPFIITNKHLFRRNNGTLVVQSLHGVFKVKDTTTLQQHLVDGRDMIIIRMPKDFPPFPQKLKFREPQREERICLVTTNFQTKSMSSMVSDTSCTFPSGDGIFWKHWIQTKDGQCGSPLVSTRDGFIVGIHSASNFTNTNNYFTSVPKNFMELLTNQEAQQWVSGWRLNADSVLWGGHKVFMVKPEEPFQPVKEATQL
# Variants of: B1
# Assay: raw area under fraction-flipped curve 0-4 h after induction (AUC4h, not background-subtracted), DNA-recorder readout of cleavage of the substrate (dimensionless); higher = more cleavage of the substrate by the protease variant
# Conditions: temperature: 34 °C; time window: 0-4 h after rhamnose induction
# 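Note: Bxb1 expression induced with 0.2% (w/v) L-rhamnose at OD600 near 0.5, cultures sampled hourly, flipped fraction per protease–substrate barcode pair counted by paired-end Illumina sequencing.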
Variant,area with substrate ENLDFQS,area with substrate ENLEFQS,area with substrate ENLFFQS,area with substrate ENLKFQS,area with substrate ENLLFQS,area with substrate ENLMFQS,area with substrate ENLNFQS,area with substrate ENLPFQS,area with substrate ENLQFQS,area with substrate ENLRFQS,area with substrate ENLSFQS,area with substrate ENLWFQS,area with substrate ENLHFQS,area with substrate ENLGFQS,area with substrate ENLIFQS,area with substrate ENLVFQS,area with substrate ENLTFQS
MGESLFKGPRDYNPISSSICHLTNESDGHTTSLYGIGFGPFIITNKHLFRRNNGTLVVQSLHGVFKVKDTTTLQQHLVDGRDMIIIRMPKDPPPFPQKLKFREPQREERICLVTTNFQTKSMSSMVSDTSCTFPSGDGIFWKHWIQTKDGQCGSPLVSTRDGFIVGIHSASNFTNTNNYFTSVPKNFMELLTNQEAQQWVSGWRLNADSVLWGGHKVFMVKPEEPFQPVKEATQL [F92P],0.0648,0.0622,0.0575,0.0562,0.0552,0.0523,0.0688,0.0531,0.0409,0.0583,0.0621,0.0541,,,,,
MGESLFKGPRDYNPISSSICHLTNESDGHTTSLYGIGFGPFIITNKHLFRRNNGTLVVQSLHGVFKVKDTTTLQQHLVDGRDMIIIRMPKDFPPFPQKLKFREPQREERICLVTTNFQTKSSSSMVSDTSCTFPSGDGIFWKHWIQTKDGQCGSPLVSTRDGFIVGIHSASNFTNTNNYFTSVPKNFMELLTNQEAQQWVSGWRLNADSVLWGGHKVFMVKPEEPFQPVKEATQL [M122S],0.0575,,0.085,,,0.074,0.0637,,0.0799,0.0704,,0.0602,0.064,,,,
MGESLFKGPRDYNPISSSICHLTNESDGHTTSLYGIGFGPFIITNKHLFRRNNGTLVVQSLHGVFKVKDTTTLQQHLVDGRDMIIIRMPKDFPPFPFKLKFREPQREERICLVTTNFQTKSMSSMVSDTSCTFPSGDGIFWKHWIQTKDGQCGSPLVSTRDGFIVGIHSASNFTNTNNYFTSVPKNFMELLTNQEAQQWVSGWRLNADSVLWGGHKVFMVKPEEPFQPVKEATQL [Q97F],0.0508,,,0.0708,,,,,,0.0838,0.0743,,0.0694,0.0454,,,
MGESLFKGPRDYNPISSSICHLTNESDGHTTSLYGIGFGPFIITNKHLFRRNNGTLVVQSLHGVFKVKDTTTLQQHLVDGRDMIIIRMPKDFPPFPKKLKFREPQREERICLVTTNFQTKSMSSMVSDTSCTFPSGDGIFWKHWIQTKDGQCGSPLVSTRDGFIVGIHSASNFTNTNNYFTSVPKNFMELLTNQEAQQWVSGWRLNADSVLWGGHKVFMVKPEEPFQPVKEATQL [Q97K],0.0611,,,,,,,,,,,,0.0519,,,,
MGESLFKGPRDYNPISSSICHLTNESDGHTTSLYGIGFGPFIITNKHLFRRNNGTLVVQSLHGVFKVKDTTTLQQHLVDGRDMIIIRMPKDFPPFPQKLKFREPQREERICLVTPNFQTKSMSSMVSDTSCTFPSGDGIFWKHWIQTKDGQCGSPLVSTRDGFIVGIHSASNFTNTNNYFTSVPKNFMELLTNQEAQQWVSGWRLNADSVLWGGHKVFMVKPEEPFQPVKEATQL [T115P],0.0566,,,0.0646,,,0.0712,,0.0892,0.0741,,,,,0.0935,,
MGESLFKGPRDYNPISSSICHLTNESDGHTTSLYGIGFGPFIITNKHLFRRNNGTLVVQSLHGVFKVKDTTTLQQHLVDGRDMIIIRMPKDFPPFPQKLKFREPQREERICLVTTNFQPKSMSSMVSDTSCTFPSGDGIFWKHWIQTKDGQCGSPLVSTRDGFIVGIHSASNFTNTNNYFTSVPKNFMELLTNQEAQQWVSGWRLNADSVLWGGHKVFMVKPEEPFQPVKEATQL [T119P],0.0621,0.0647,0.0946,0.091,,,,0.0672,0.0718,0.0747,,0.0799,0.0674,,0.0464,,
MGESLFKGPRDYNPISSSICHLTNESDGHTTSLYGIGFGPFIITNKHLFRRNNGTLVVQSLHGVFKVKDTTTLQQHLVDGRDMIIIRMPKDFPPFPQKLKFREPQREERICLVTTNFQTKSMSSMVSDESCTFPSGDGIFWKHWIQTKDGQCGSPLVSTRDGFIVGIHSASNFTNTNNYFTSVPKNFMELLTNQEAQQWVSGWRLNADSVLWGGHKVFMVKPEEPFQPVKEATQL [T129E],0.0577,,0.0883,0.0754,,,,,,0.0629,0.0491,,,0.0569,,,
MGESLFKGPRDYNPISSSICHLTNESDGHTTSLYGIGFGPFIITNKHLFRRNNGTLVVQSLHGVFKVKDTTTLQQHLVDGRDMIIIRMPKDFPPFPQKLKYREPQREERICLVTTNFQTKSMSSMVSDTSCTFPSGDGIFWKHWIQTKDGQCGSPLVSTRDGFIVGIHSASNFTNTNNYFTSVPKNFMELLTNQEAQQWVSGWRLNADSVLWGGHKVFMVKPEEPFQPVKEATQL [F101Y],0.0653,,,,,,0.0707,,,0.0702,0.0368,,,,,0.0589,
MGESLFKGPRDYNPISSSICHLTNESDGHTTSLYGIGFGPFIITNKHLFRRNNGTLVVQSLHGVFKVKDTTTLQQHLVDGRDMIIIRMPKDFPPFPQKLKFREPQREERICLVTTNFQTKSMSSMVSDTSCTFPQGDGIFWKHWIQTKDGQCGSPLVSTRDGFIVGIHSASNFTNTNNYFTSVPKNFMELLTNQEAQQWVSGWRLNADSVLWGGHKVFMVKPEEPFQPVKEATQL [S135Q],0.0634,0.0515,0.0512,0.0642,0.0605,0.0489,0.0657,0.0557,,0.0505,0.0657,0.0504,0.057,,0.0847,,
MGESLFKGPRDYNPISSSICHLTNESDGHTTSLYGIGFGPFIITNKHLFRRNNGTLVVQSLHGVFKVKDTTTLQQHLVDGRDMIIIRMPKDFPPFPQKLKFREPQREERICLVTTNFQTKSMSSMSSDTSCTFPSGDGIFWKHWIQTKDGQCGSPLVSTRDGFIVGIHSASNFTNTNNYFTSVPKNFMELLTNQEAQQWVSGWRLNADSVLWGGHKVFMVKPEEPFQPVKEATQL [V126S],0.0588,,0.0751,0.0731,,0.061,0.0631,0.0646,0.0648,0.0839,0.0622,0.105,0.0757,0.072,0.0913,0.0874,
MGESLFKGPRDYNPISSSICHLTNESDGHTTSLYGIGFGPFIITNKHLFRRNNGTLVVQSLHGVFKVKDTTTLQQHLVDGRDMIIIRMPKDFPPFPQKLKFREPQREERICLVTTNWQTKSMSSMVSDTSCTFPSGDGIFWKHWIQTKDGQCGSPLVSTRDGFIVGIHSASNFTNTNNYFTSVPKNFMELLTNQEAQQWVSGWRLNADSVLWGGHKVFMVKPEEPFQPVKEATQL [F117W],0.0607,0.0666,,0.0667,,0.0679,,0.0687,,,0.0553,,0.0493,0.0623,,,
MGESLFKGPRDYNPISSSICHLTNESDGHTTSLYGIGFGPFIITNKHLFRRNNGTLVVQSLHGVFKVKDTTTLQQHLVDGRDMIIIRMPKDFPPFPQKLKFREPQREERICLVTTNFQTKSMSSMVSDTSCTFPSGDGIFTKHWIQTKDGQCGSPLVSTRDGFIVGIHSASNFTNTNNYFTSVPKNFMELLTNQEAQQWVSGWRLNADSVLWGGHKVFMVKPEEPFQPVKEATQL [W141T],0.0569,0.0617,,,0.057,,0.0593,0.0603,0.0541,,,0.0567,0.0563,0.0746,,0.0695,0.0632
MGESLFKGPRDYNPISSSICHLTNESDGHTTSLYGIGFGPFIITNKHLFRRNNGTLVVQSLHGVFKVKDTTTLQQHLVDGRDMIIIRMPKDFPPFPQKLKFREPQREERICLVTTNFQTKSMSSMVSDTLCTFPSGDGIFWKHWIQTKDGQCGSPLVSTRDGFIVGIHSASNFTNTNNYFTSVPKNFMELLTNQEAQQWVSGWRLNADSVLWGGHKVFMVKPEEPFQPVKEATQL [S130L],0.0585,,0.0698,0.0685,0.0652,,0.0499,0.0419,0.0803,0.0567,0.0608,,0.0548,,,,
MGESLFKGPRDYNPISSSICHLTNESDGHTTSLYGIGFGPFIITNKHLFRRNNGTLVVQSLHGVFKVKDTTTLQQHLVDGRDMIIIRMPKDFQPFPQKLKFREPQREERICLVTTNFQTKSMSSMVSDTSCTFPSGDGIFWKHWIQTKDGQCGSPLVSTRDGFIVGIHSASNFTNTNNYFTSVPKNFMELLTNQEAQQWVSGWRLNADSVLWGGHKVFMVKPEEPFQPVKEATQL [P93Q],0.0728,0.0671,0.0771,0.0659,,,,0.0605,,,0.0815,,,,0.0843,,
MGESLFKGPRDYNPISSSICHLTNESDGHTTSLYGIGFGPFIITNKHLFRRNNGTLVVQSLHGVFKVKDTTTLQQHLVDGRDMIIIRMPKDFNPFPQKLKFREPQREERICLVTTNFQTKSMSSMVSDTSCTFPSGDGIFWKHWIQTKDGQCGSPLVSTRDGFIVGIHSASNFTNTNNYFTSVPKNFMELLTNQEAQQWVSGWRLNADSVLWGGHKVFMVKPEEPFQPVKEATQL [P93N],0.0626,,0.0913,,,,0.0567,0.0629,,,,,0.0636,,0.087,,
MGESLFKGPRDYNPISSSICHLTNESDGHTTSLYGIGFGPFIITNKHLFRRNNGTLVVQSLHGVFKVKDTTTLQQHLVDGRDMIIIRMPKDFPPFPQKLKFREPQREERICLVTTNFQTKSMSSMVSDTSCLFPSGDGIFWKHWIQTKDGQCGSPLVSTRDGFIVGIHSASNFTNTNNYFTSVPKNFMELLTNQEAQQWVSGWRLNADSVLWGGHKVFMVKPEEPFQPVKEATQL [T132L],0.0594,0.0743,0.0797,0.0619,,,0.0832,0.0599,0.0666,0.0654,0.0848,0.0527,0.0609,0.0605,0.0755,0.0572,
MGESLFKGPRDYNPISSSICHLTNESDGHTTSLYGIGFGPFIITNKHLFRRNNGTLVVQSLHGVFKVKDTTTLQQHLVDGRDMIIIRMPKDFPPFPQKLKFREPQREERICLVTTNFQTKSMSSMVSDTSCWFPSGDGIFWKHWIQTKDGQCGSPLVSTRDGFIVGIHSASNFTNTNNYFTSVPKNFMELLTNQEAQQWVSGWRLNADSVLWGGHKVFMVKPEEPFQPVKEATQL [T132W],0.087,0.0606,0.0618,0.0656,0.071,,0.0607,0.0496,0.0702,0.0471,0.0488,0.0548,0.0559,,,,
MGESLFKGPRDYNPISSSICHLTNESDGHTTSLYGIGFGPFIITNKHLFRRNNGTLVVQSLHGVFKVKDTTTLQQHLVDGRDMIIIRMPKDFPPFPQKLKFREPQREERICLVTTNFQTKCMSSMVSDTSCTFPSGDGIFWKHWIQTKDGQCGSPLVSTRDGFIVGIHSASNFTNTNNYFTSVPKNFMELLTNQEAQQWVSGWRLNADSVLWGGHKVFMVKPEEPFQPVKEATQL [S121C],0.0555,0.0633,0.112,0.0881,,,0.0682,0.0755,0.084,0.0635,0.0649,0.0817,0.0723,,0.0914,,0.0674
MGESLFKGPRDYNPISSSICHLTNESDGHTTSLYGIGFGPFIITNKHLFRRNNGTLVVQSLHGVFKVKDTTTLQQHLVDGRDMIIIRMPKDFPPFGQKLKFREPQREERICLVTTNFQTKSMSSMVSDTSCTFPSGDGIFWKHWIQTKDGQCGSPLVSTRDGFIVGIHSASNFTNTNNYFTSVPKNFMELLTNQEAQQWVSGWRLNADSVLWGGHKVFMVKPEEPFQPVKEATQL [P96G],0.0761,,0.08,0.0572,,,0.0635,0.0708,,,0.0744,,0.0686,,,,
MGESLFKGPRDYNPISSSICHLTNESDGHTTSLYGIGFGPFIITNKHLFRRNNGTLVVQSLHGVFKVKDTTTLQQHLVDGRDMIIIRMPKDFPPFPQKLKFREPQREERICLVTTNFQTKSMSSMVSDTSCTTPSGDGIFWKHWIQTKDGQCGSPLVSTRDGFIVGIHSASNFTNTNNYFTSVPKNFMELLTNQEAQQWVSGWRLNADSVLWGGHKVFMVKPEEPFQPVKEATQL [F133T],0.0767,0.068,0.0897,,,,0.052,0.0669,0.0786,0.0803,,0.08,0.0875,,,,
